# Measured values reported in the supplement of paper PMC10326071.
# Several values for one entry are separate records, joined by “and”; a condition that tells them apart may be missing. Identical values can stand only once. Some of the results follow. Repeats are few or missing, and single values can be far off.
# Test system: SARS-CoV-2 nsp3 SARS-unique domain core (SUD-core, nsp3 residues 413-676)
# Assay: apparent dissociation constant Kd (single-concentration BLI fit); higher = weaker binding
# Conditions: 100 µM; 25 °C
row,SMILES,apparent dissociation constant Kd
1,C[N+](C)(C)CCOP(=O)(O)OP(=O)([O-])OC[C@H]1O[C@@H](n2ccc(N)nc2=O)[C@H](O)[C@@H]1O,0.562 mM
2,COc1ccc(Cl)c(Nc2nc3ccccc3nc2NS(=O)(=O)c2cccc(NC(=O)C(C)(C)N)c2)c1,1.97 mM
3,CC(C)(C)c1nc(-c2cccc(NS(=O)(=O)c3c(F)cccc3F)c2F)c(-c2ccnc(N)n2)s1,1.69 mM
4,CO[C@@H]1[C@H](O)[C@@H](CO)O[C@H]1n1cnc2c(N)ncnc21,0.0959 mM
5,CN1CCCN(C(=O)c2cccc(-c3ccc(/C=C4/C(=O)Nc5ccc(Cl)cc54)o3)c2)CC1,18.5 mM and 22.7 mM
6,C[C@H]1O[C@@H](n2cc(F)c(=O)[nH]c2=O)[C@H](O)[C@@H]1O,27.5 mM
7,Cc1ccc(Oc2nc3cc(-c4ccc(-c5ccccc5)cc4)c(Cl)cc3[nH]2)cc1C(=O)O,8.82 mM
8,CC(C)(O)CNc1ncc(-c2ccnc(Nc3ccnc(Cl)c3)n2)c(CC2CC2)n1,2.77 mM
9,C=CC(=O)Nc1cc(Nc2ncc(C(=O)OC(C)C)c(-c3cn(C)c4ccccc34)n2)c(OC)cc1N(C)CCN(C)C,1.69 mM
10,Nc1ncn([C@@H]2O[C@H](CO)[C@@H](O)[C@H]2O)c(=O)n1,7.53 mM
11,CNc1ccc(-c2nc(N3CCOCC3)c3sc(CN(C)c4ncc(C(=O)NO)cn4)cc3n2)cn1,0.174 mM
12,Nc1ncnc2c1c(-c1cccc(OCc3ccccc3)c1)cn2C1CC(CN2CCCC2)C1 (centres undefined),3.34 mM
13,Cc1cn([C@H]2C=C[C@@H](CO)O2)c(=O)[nH]c1=O,7.69 mM
14,OCCN(CCO)c1ccc(C(c2ccc(Cl)cc2)c2ccc(N(CCO)CCO)cc2)cc1,4.72 mM
15,NCCCCCCNS(=O)(=O)c1cccc2c(Cl)cccc12,1.68 mM
16,O[C@@H]1CO[C@H]2[C@@H]1OC[C@H]2Oc1nc2nc(-c3ccc(-c4ccccc4)cc3)c(Cl)cc2[nH]1,2.19 mM
17,C[C@H](CC[C@@H](O)C(C)(C)O)[C@H]1CC[C@@]2(C)[C@@H]3CC=C4[C@@H](CC[C@H](O)C4(C)C)[C@]3(C)[C@H](O)C[C@]12C,1.8 mM
18,C=CC(=O)Nc1ccc2ncnc(Nc3ccc(OCc4cccc(F)c4)c(Cl)c3)c2c1,3.42 mM
19,CN1CC[C@@H](c2c(O)cc(O)c3c(=O)cc(-c4ccc(C(F)(F)F)cc4Cl)oc23)[C@@H]1CO,1.4 mM
20,Cn1c(N)nc2c(ncn2[C@@H]2O[C@H](CO)[C@@H](O)[C@H]2O)c1=O,0.571 mM

row,SMILES,apparent dissociation constant Kd
1,CNC(=O)c1nn(C)c2c1C(C)(C)Cc1cnc(Nc3ccc(N4CCN(C)CC4)cc3)nc1-2,1.91 mM
2,Cc1cnc(Nc2ccc(F)cc2Cl)nc1-c1c[nH]c(C(=O)N[C@H](CO)c2cccc(Cl)c2)c1,14.8 mM
3,CCn1cc(-c2ccc3c(c2)CCN3C(=O)Cc2cccc(OC(F)(F)F)c2)c2c(N)ncnc21,0.304 mM
4,O=C(Nc1cn[nH]c1-c1nc2ccc(CN3CCOCC3)cc2[nH]1)NC1CC1,0.0773 mM
5,CN(C)CCOc1ccc(-c2nc(-c3ccc4c(c3)CC/C4=N/O)c(-c3ccncc3)[nH]2)cc1,3.99 mM
6,Nc1ncnc2c1c(-c1cccc(OCc3ccccc3)c1)cn2C1CC(CN2CCC2)C1 (centres undefined),0.0225 mM
7,Nc1ccn([C@H]2CC[C@@H](CO)O2)c(=O)n1,0.108 mM
8,O=C(NCCCNc1nc(Nc2cccc(NC(=O)N3CCCC3)c2)ncc1I)c1cccs1,2.24 mM
9,C[C@@H]1O[C@@H](O[C@@H]2[C@@H](O)[C@H](OCCc3ccc(O)c(O)c3)O[C@H](CO)[C@H]2OC(=O)/C=C/c2ccc(O)c(O)c2)[C@H](O)[C@H](O)[C@H]1O,0.0376 mM
10,CC(C)=CCc1c(O)ccc(C(=O)/C=C/c2ccc(O)cc2)c1O,0.31 mM
11,COC(=O)N[C@@H](C)CNc1nccc(-c2cn(C(C)C)nc2-c2cc(Cl)cc(NS(C)(=O)=O)c2F)n1,1.81 mM
12,Nc1nc2c(ncn2[C@@H]2O[C@H](CO)[C@@H](O)[C@H]2O)c(=O)[nH]1,0.803 mM
13,O=C(O[C@@H]1Cc2c(O)cc(O)cc2O[C@@H]1c1cc(O)c(=O)c2c(O)c(O)cc([C@H]3Oc4cc(O)cc(O)c4C[C@H]3OC(=O)c3cc(O)c(O)c(O)c3)c2c1)c1cc(O)c(O)c(O)c1,0.00208 mM
14,CC[C@@H](N)CNc1ccnc(-c2cc(-c3cnn(C)c3)ccc2O)n1,0.0256 mM
15,CC#CC(=O)N1CC[C@@H](n2c(=O)n(-c3ccc(Oc4ccccc4)cc3)c3c(N)ncnc32)C1,1.52 mM
16,O=c1oc2ccccc2c(O)c1Cc1c(O)c2ccccc2oc1=O,1.61 mM
17,C[C@H]1CN(C2COC2)CCN1c1ccc(Nc2cc(-c3ccnc(N4CCn5c(cc6c5CC(C)(C)C6)C4=O)c3CO)cn(C)c2=O)nc1,3.39 mM
18,C=CC(=O)Nc1ccc(C(=O)Nc2n[nH]c3c2CN(C(=O)N[C@H](CN(C)C)c2ccccc2)C3(C)C)cc1,0.16 mM
19,COc1cc(OC)c(/C=C/S(=O)(=O)Cc2ccc(OC)c(O)c2)c(OC)c1,2.27 mM
